The target of one assay is Cynomolgus Monkey PTK7. Nature of the assay: SPR of hu24 mAb and hu24-vc0101 ADC (Example 11). In kind it is binding. The note with it: Cynomolgus PTK7 ectodomain. As for the experimental part: (§1) Surface plasmon resonance (SPR) analysis was conducted to characterize the binding characteristics of the mAb and ADC to human and cynomolgus monkey PTK7 protein ectodomains. […] There was no significant difference in affinities between mAb and ADC for human or cynomolgus monkey PTK7 protein (Table 16).

The target of assay [1] is T1, human PTK7 (Homo sapiens, UniProt Q13308).
T1 construct: human and cynomolgus monkey PTK7 protein ectodomains
T1 sequence (Q13308 31-704 limits assumed): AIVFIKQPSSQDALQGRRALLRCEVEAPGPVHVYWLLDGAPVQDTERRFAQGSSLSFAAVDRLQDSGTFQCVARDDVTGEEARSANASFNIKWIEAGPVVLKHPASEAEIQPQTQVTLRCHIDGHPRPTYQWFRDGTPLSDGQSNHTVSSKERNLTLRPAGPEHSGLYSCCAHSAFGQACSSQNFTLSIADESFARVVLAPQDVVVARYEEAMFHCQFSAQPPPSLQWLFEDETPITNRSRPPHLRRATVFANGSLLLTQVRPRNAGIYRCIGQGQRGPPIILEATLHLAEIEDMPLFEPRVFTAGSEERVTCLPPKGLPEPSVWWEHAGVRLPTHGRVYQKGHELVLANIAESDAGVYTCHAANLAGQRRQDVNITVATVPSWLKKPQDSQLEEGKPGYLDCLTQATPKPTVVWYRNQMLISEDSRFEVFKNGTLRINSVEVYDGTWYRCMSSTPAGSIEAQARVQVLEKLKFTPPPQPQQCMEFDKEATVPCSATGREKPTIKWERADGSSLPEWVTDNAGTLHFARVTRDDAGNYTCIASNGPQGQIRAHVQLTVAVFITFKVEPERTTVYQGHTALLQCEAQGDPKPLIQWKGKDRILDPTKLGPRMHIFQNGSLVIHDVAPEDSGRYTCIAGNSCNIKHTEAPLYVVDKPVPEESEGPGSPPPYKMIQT
Description: SPR of hu24 mAb and hu24-vc0101 ADC (Example 11). It is filed as binding. The note with it: Human PTK7 ectodomain. As for the experimental part:
as §1

Assay [2] deals with T2, human PTK7 (Homo sapiens, UniProt Q13308).
T2 sequence (Q13308 31-1070): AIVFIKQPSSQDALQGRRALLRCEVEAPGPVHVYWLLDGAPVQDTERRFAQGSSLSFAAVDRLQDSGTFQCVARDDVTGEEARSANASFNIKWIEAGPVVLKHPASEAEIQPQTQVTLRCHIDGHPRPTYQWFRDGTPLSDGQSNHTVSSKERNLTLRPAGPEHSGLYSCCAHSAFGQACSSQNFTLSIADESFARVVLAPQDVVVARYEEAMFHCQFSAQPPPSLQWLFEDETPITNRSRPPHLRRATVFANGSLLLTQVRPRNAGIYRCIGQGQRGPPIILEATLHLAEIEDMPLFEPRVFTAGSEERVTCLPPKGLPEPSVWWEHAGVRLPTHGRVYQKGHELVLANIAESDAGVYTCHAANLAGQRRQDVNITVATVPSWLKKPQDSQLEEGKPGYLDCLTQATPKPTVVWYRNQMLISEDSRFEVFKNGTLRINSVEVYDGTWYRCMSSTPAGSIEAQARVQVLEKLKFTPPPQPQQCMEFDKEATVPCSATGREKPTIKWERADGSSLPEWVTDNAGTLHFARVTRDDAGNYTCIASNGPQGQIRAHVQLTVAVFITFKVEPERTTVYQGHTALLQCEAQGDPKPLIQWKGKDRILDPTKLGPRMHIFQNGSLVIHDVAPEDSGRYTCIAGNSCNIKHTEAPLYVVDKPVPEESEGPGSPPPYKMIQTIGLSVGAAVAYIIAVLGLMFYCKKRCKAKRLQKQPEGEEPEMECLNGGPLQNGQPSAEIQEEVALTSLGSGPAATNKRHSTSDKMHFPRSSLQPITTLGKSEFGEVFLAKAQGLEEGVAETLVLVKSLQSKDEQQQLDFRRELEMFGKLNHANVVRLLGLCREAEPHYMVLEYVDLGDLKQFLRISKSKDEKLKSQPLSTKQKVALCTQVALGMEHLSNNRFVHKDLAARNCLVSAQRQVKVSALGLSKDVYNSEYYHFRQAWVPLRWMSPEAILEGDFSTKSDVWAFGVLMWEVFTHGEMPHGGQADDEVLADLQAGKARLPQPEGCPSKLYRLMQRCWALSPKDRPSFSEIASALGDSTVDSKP
Description: SPR (Biacore 2000) of chimeric and humanized clone 24 mAbs. The note with it: recombinant human PTK7 ectodomain; Kd=Koff/Kon. It is filed as binding. The procedure: A comparison of the chimeric and humanized clone 24 mAbs was determined by SPR using a Biacore™ 2000 (GE Healthcare). An antihuman antibody capture kit was used to immobilize capture mAbs on a CM5 biosensor chip. Prior to each antigen injection cycle, humanized mAb at a concentration of 2 μg/mL was captured on the surface with a contact time of 2 minutes and a flow rate of 5 μL/minute. The captured mAb loading from baseline was constant at 80-120 response units. […] Following each cycle, the anti-human capture surface was regenerated with 30 seconds contact time of 3M MgCl2 at 10 μL/minute.
Biacore™ data was processed by initially subtracting a control IgG surface from the specific mAb binding surface. The response data was then truncated to the association and dissociation phase. The resulting response curves with three different antigen concentrations were used to fit a 1:1 Langmuir binding model and to generate an apparent affinity by the calculated Kon and Koff kinetics constants, with equilibrium dissociation constant defined as Kd=Koff/Kon. All data analysis steps were completed in BiaEvaluation Software 3.1 (GE Healthcare).
On the technique in general: SPR reads the build-up and loss of mass on a sensor chip optically.

The subject of another assay is H661 lung cancer cells. Nature of the assay: Microtubule structure by anti-tubulin immunofluorescence. In kind it is cell-based, human. To be noted: 48 hours, ADC or mAb 0-4 μg/mL, free 0101 0.1-10 nM, FIG. 22. As for the experimental part: The cells were then fixed in 3% paraformaldehyde, washed with PBS, permeabilized with 0.5% Triton-X® (Sigma Chemical) in PBS, washed with PBS, and incubated with blocking buffer (5% normal goat serum and 0.2% Tween-20 in PBS). Cells were incubated with the primary anti-α-tubulin antibody (Sigma NoT9026, clone DM1A) in blocking buffer for 1 hour at room temperature. Afterwards, the cells were washed with PBS and incubated for 30 minutes with an Alexa Fluor® 488-conjugated secondary antibody (Invitrogen Corp) and 4′,6-diamidino-2-phenylindole (DAPI) to stain the DNA. The cells were visualized on a Zeiss LSM 510 Meta confocal microscope.

B1: hu24 (antibody)
heavy: QVQLVQSGPEVKKPGASVKVSCKASGYTFTDYAVHWVRQAPGKRLEWIGVISTYNDYTYNNQDFKGRVTMTRDTSASTAYMELSRLRSEDTAVYYCARGNSYFYALDYWGQGTSVTVSS[letters of human IgG1 constant region omitted]
light: EIVLTQSPATLSLSPGERATLSCRASESVDSYGKSFMHWYQQKPGQAPRLLIYRASNLESGIPARFSGSGSGTDFTLTISSLEPEDFAVYYCQQSNEDPWTFGGGTKLEIKRTVAAPSVFIFPPSDEQLKSGTASVVCLLNNFYPREAKVQWKVDNALQSGNSQESVTEQDSKDSTYSLSSTLTLSKADYEKHKVYACEVTHQGLSSPVTKSFNRGEC
On to B1, for which the Kd (in general, the constant that tells how readily two partners part at equilibrium) at Cynomolgus Monkey PTK7 was 1.2 nM; in the assay with human PTK7 [1], 0.7 nM; in the assay with human PTK7 [2] it was 1.2 nM. Moreover, the “effect on microtubule structure and cell cycle” value in the assay on H661 lung cancer cells was “neither unconjugated hu24 mAb nor negative control mAb elicited these responses”.

B2: hu24-vc0101: hu24 conjugated through cysteines to vc0101 linker-payload; average DAR approximately 4 (conjugate)
heavy: B1 heavy
light: B1 light
As for B2, the Kd is 3.6 nM on Cynomolgus Monkey PTK7 and 1.4 nM with human PTK7 [1]. For the same molecule, in the assay on H661 lung cancer cells, the “effect on microtubule structure and cell cycle” value is “disrupted microtubule structure and led to G2/M cell cycle arrest”.

The record behind these values is patent US9777070B2, “Anti-PTK7 antibody-drug conjugates” (Pfizer Inc., priority 2014, dated 2017).
